These results are taken from the BET-seq Pho4 binding data (Le et al. 2018).

This is one part of the list. Values were computed here from the reads of four pooled replicates and scatter widely.

For this assay, the target named is T1, Pho4 (S. cerevisiae) (UniProt P07270).
T1 sequence: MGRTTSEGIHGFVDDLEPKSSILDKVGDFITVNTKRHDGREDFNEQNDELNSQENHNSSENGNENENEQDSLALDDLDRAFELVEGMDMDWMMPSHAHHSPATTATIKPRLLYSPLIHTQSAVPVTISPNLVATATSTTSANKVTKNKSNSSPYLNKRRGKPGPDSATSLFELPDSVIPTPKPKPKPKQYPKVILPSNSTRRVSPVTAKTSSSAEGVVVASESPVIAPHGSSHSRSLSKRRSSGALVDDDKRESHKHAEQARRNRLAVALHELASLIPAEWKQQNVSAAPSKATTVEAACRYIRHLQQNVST
Briefly: relative binding free energy (BET-seq); higher = weaker binding. Conditions: reference: library average.
With AGTGGCACGTGGTGGA, the “relative binding free energy” value was -0.06 kcal/mol.
On to ACGAGCACGTGGGAGG, for which the “relative binding free energy” value was -0.26 kcal/mol.
Regarding TGATACACGTGTTAAG, the “relative binding free energy” value came to 0.22 kcal/mol.
As to TTAAGCACGTGGGTTA, the “relative binding free energy” value was -0.22 kcal/mol.
Then TTGTTCACGTGCAGTG, with 0.22 kcal/mol.
Turning to TATAACACGTGGTTTG, the “relative binding free energy” value is -0.05 kcal/mol.
TATTGCACGTGTGGAG: the “relative binding free energy” value came to 0.07 kcal/mol.
As to GGTTGCACGTGTTGAC, the “relative binding free energy” value turned out to be 0.05 kcal/mol.
On to TCTGGCACGTGGGGAC, for which the “relative binding free energy” value is -0.2 kcal/mol.
For the sequence ATGATCACGTGTTTAT, the “relative binding free energy” value is 0.14 kcal/mol.
Then TTTCACACGTGGTTGA, with 0.05 kcal/mol.
Regarding ATATTCACGTGTTAAT, the “relative binding free energy” value came to 0.11 kcal/mol.
Then AGATGCACGTGATATG, with 0.01 kcal/mol; and GCGTGCACGTGTGGTG, with 0.08 kcal/mol; and GAGTACACGTGGGTTG, with 0.04 kcal/mol.
Then TGAGGCACGTGTCCGG, with -0.2 kcal/mol; and GGCAACACGTGTTAGG, with 0.18 kcal/mol; and TTCGGCACGTGGTCTT, with -0.08 kcal/mol.
Take GAGCTCACGTGGAGGT: the “relative binding free energy” value came out at 0.43 kcal/mol.
As to GGCATCACGTGAATGG, the “relative binding free energy” value worked out at 0.4 kcal/mol.
Then ATCGACACGTGGGGGT, with -0.22 kcal/mol.
For GGTGTCACGTGTTAGA, the “relative binding free energy” value is 0.19 kcal/mol.
In the case of AGGAACACGTGGCGGT, the “relative binding free energy” value was -0.01 kcal/mol.
Consider GATTACACGTGTATTT, for which the “relative binding free energy” value was 0.32 kcal/mol.
Consider TTATTCACGTGTTTGG, for which the “relative binding free energy” value was 0.35 kcal/mol.
The result for GAGGCCACGTGTGTAT reads 0.08 kcal/mol; that for TTTATCACGTGTGATT, 0.3 kcal/mol; that for AGTATCACGTGGAGGG, 0.09 kcal/mol.
Then GAGTACACGTGGCGTG, with -0.06 kcal/mol.
The result for CGGTTCACGTGTTGGA reads 0.24 kcal/mol; that for CGGTACACGTGTATGT, 0.06 kcal/mol.
On to TTGATCACGTGATCAG, for which the “relative binding free energy” value turned out to be 0.26 kcal/mol.
The result for GACGGCACGTGTAATG reads 0.19 kcal/mol.
On to AAGGGCACGTGGCGGT, for which the “relative binding free energy” value is -0.09 kcal/mol.
Regarding GTAGGCACGTGCGCTG, the “relative binding free energy” value is -0.18 kcal/mol.
As to TTTGTCACGTGTATCG, the “relative binding free energy” value came out at 0.15 kcal/mol.
Regarding AGTTTCACGTGTTAGA, the “relative binding free energy” value amounted to 0.15 kcal/mol.
Take TCTAACACGTGTTTTA: the “relative binding free energy” value worked out at 0.13 kcal/mol.
In the case of TGGCGCACGTGGGAAG, the “relative binding free energy” value was -0.2 kcal/mol.
With GGGCTCACGTGATTGA, the “relative binding free energy” value turned out to be 0.44 kcal/mol.
Turning to GTGTGCACGTGAGGCG, the “relative binding free energy” value was 0.19 kcal/mol.
With GGGTGCACGTGCGGCA, the “relative binding free energy” value was -0.08 kcal/mol.
The result for TTTGTCACGTGGAAAG reads 0.21 kcal/mol.
Regarding TTTGACACGTGTGTCG, the “relative binding free energy” value came out at 0.12 kcal/mol.
For GGTGCCACGTGTAGAG, the “relative binding free energy” value was -0.05 kcal/mol.
Turning to CGGGACACGTGAAGGG, the “relative binding free energy” value came out at 0.31 kcal/mol.
For TCAAACACGTGTGGGA, the “relative binding free energy” value came to 0.26 kcal/mol.
Consider TGGATCACGTGTTATC, for which the “relative binding free energy” value came out at 0.29 kcal/mol.
As for CGTTTCACGTGTGTAA, the “relative binding free energy” value is 0.27 kcal/mol.
Then AAGGGCACGTGGGAAC, with -0.12 kcal/mol; and ATTGTCACGTGGTGCT, with 0.08 kcal/mol.
For the sequence GTGGCCACGTGATGTT, the “relative binding free energy” value came out at 0.18 kcal/mol.
Turning to TCTTGCACGTGGGGGT, the “relative binding free energy” value is -0.18 kcal/mol.
Take TTCCGCACGTGTGAGT: the “relative binding free energy” value stood at 0.08 kcal/mol.
On to GGGTTCACGTGCAAGG, for which the “relative binding free energy” value is 0.25 kcal/mol.
Then TTTGACACGTGCGTTG, with -0.05 kcal/mol; and AGCTACACGTGGTTTT, with 0.07 kcal/mol; and GTCGGCACGTGCTGGG, with 0.02 kcal/mol.
As to TATCGCACGTGTGTGA, the “relative binding free energy” value is -0.01 kcal/mol.
Consider TGTCTCACGTGTTGCT, for which the “relative binding free energy” value is 0.1 kcal/mol.
Then ATTGTCACGTGATGCG, with 0.2 kcal/mol; and TTTATCACGTGCGCTT, with 0.05 kcal/mol.
Take TGGGACACGTGCAGGA: the “relative binding free energy” value was determined as 0.04 kcal/mol.
For the sequence AATAGCACGTGCGGGC, the “relative binding free energy” value is -0.01 kcal/mol.
Turning to AGTATCACGTGTAATG, the “relative binding free energy” value turned out to be 0.14 kcal/mol.
For the sequence ATTAACACGTGGGTGA, the “relative binding free energy” value is -0.05 kcal/mol.
As to AAAGCCACGTGGTGGG, the “relative binding free energy” value was -0.2 kcal/mol.
Turning to ATTGGCACGTGAGGGC, the “relative binding free energy” value was 0.18 kcal/mol.
Take ATTCGCACGTGTTTAT: the “relative binding free energy” value turned out to be 0.05 kcal/mol.
For ATTGTCACGTGATAGC, the “relative binding free energy” value was determined as 0.36 kcal/mol.
The result for GCATGCACGTGGAAGG reads 0.11 kcal/mol; that for AGAGTCACGTGAGAAG, 0.43 kcal/mol.
Regarding TGCTGCACGTGTGTAA, the “relative binding free energy” value was 0.03 kcal/mol.
In the case of TGTGTCACGTGCAGGG, the “relative binding free energy” value stood at 0.03 kcal/mol.
Take GTTTGCACGTGTTAAA: the “relative binding free energy” value was determined as 0.13 kcal/mol.
Consider ATTGCCACGTGGGCTT, for which the “relative binding free energy” value is -0.19 kcal/mol.
As for TCGGGCACGTGTTAGA, the “relative binding free energy” value is -0.03 kcal/mol.
On to AGCGTCACGTGTTGAG, for which the “relative binding free energy” value was determined as 0.06 kcal/mol.
For TAGAGCACGTGGCGGT, the “relative binding free energy” value is -0.13 kcal/mol.
As for GTGGTCACGTGGGACG, the “relative binding free energy” value was determined as 0.06 kcal/mol.
Take CTTGACACGTGTTGCG: the “relative binding free energy” value worked out at 0.07 kcal/mol.
For ATACTCACGTGGTGTG, the “relative binding free energy” value stood at 0.02 kcal/mol.
With TTTATCACGTGAAAAT, the “relative binding free energy” value is 0.51 kcal/mol.
Then CTGGACACGTGTGTGA, with 0.02 kcal/mol; and GTTGTCACGTGATGGG, with 0.25 kcal/mol; and TAGGACACGTGTTGCA, with 0.03 kcal/mol.
For the sequence AGTGGCACGTGATGGG, the “relative binding free energy” value was found to be 0 kcal/mol.
Take GATGTCACGTGGAATG: the “relative binding free energy” value was 0.27 kcal/mol.
Consider AGTGTCACGTGAGTCT, for which the “relative binding free energy” value came to 0.16 kcal/mol.
Turning to CAGGTCACGTGTGTCT, the “relative binding free energy” value was found to be 0.16 kcal/mol.
For the sequence ATGGCCACGTGTGAAG, the “relative binding free energy” value was found to be 0.09 kcal/mol.
Then TTAGGCACGTGCGAGT, with -0.09 kcal/mol.
Then TGTAGCACGTGAGCGC, with 0.06 kcal/mol; and AGTTACACGTGTATGT, with -0.05 kcal/mol.
Then TATAGCACGTGGTTTA, with -0.21 kcal/mol.
In the case of GGGGGCACGTGTTGCG, the “relative binding free energy” value was -0.05 kcal/mol.
The result for TTAGTCACGTGTTAAG reads 0.15 kcal/mol; that for GGGATCACGTGCTCGG, 0.12 kcal/mol.
Then GTCTACACGTGTATGG, with 0.11 kcal/mol.
GGACGCACGTGGGAGG: the “relative binding free energy” value was -0.24 kcal/mol.
As for ATTGTCACGTGTGTCA, the “relative binding free energy” value is 0 kcal/mol.
Regarding CGTGACACGTGCGTGT, the “relative binding free energy” value is -0.17 kcal/mol.
With TTCGTCACGTGGCGTT, the “relative binding free energy” value was -0.01 kcal/mol.
Turning to TGAGACACGTGGGTGT, the “relative binding free energy” value is -0.15 kcal/mol.
As for TTGTGCACGTGCGAGA, the “relative binding free energy” value was found to be 0.08 kcal/mol.
On to GTTGTCACGTGTTATT, for which the “relative binding free energy” value was 0.16 kcal/mol.
Consider AGTGTCACGTGAAGGA, for which the “relative binding free energy” value stood at 0.37 kcal/mol.
The result for TTCTTCACGTGGTGTG reads 0.21 kcal/mol.
TTGCTCACGTGATTGA: the “relative binding free energy” value was 0.32 kcal/mol.
The result for TAATCCACGTGTGAGG reads 0.18 kcal/mol; that for TTGTGCACGTGACGCG, 0.03 kcal/mol.
For the sequence TGCGTCACGTGATTGT, the “relative binding free energy” value worked out at 0.18 kcal/mol.
Turning to TTGGGCACGTGTATTC, the “relative binding free energy” value came to 0.06 kcal/mol.
With TACAACACGTGGGTTG, the “relative binding free energy” value was -0.14 kcal/mol.
Then GTGGTCACGTGCGGAA, with 0.15 kcal/mol.
